{"source": "paper PMC4336329", "about": "(PLoS ONE, 2015)", "note": "Hit rate of the full screen: of about 310,000 compounds, about 2,200 (0.71%) showed an effect of 50% or more. Effects have a minus sign here. The list shows a part of the results."}
{"biological_target": "human ether-à-go-go-related gene (hERG) potassium channel (human, UniProt Q12809)", "sequence (Q12809 whole entry, looked up)": "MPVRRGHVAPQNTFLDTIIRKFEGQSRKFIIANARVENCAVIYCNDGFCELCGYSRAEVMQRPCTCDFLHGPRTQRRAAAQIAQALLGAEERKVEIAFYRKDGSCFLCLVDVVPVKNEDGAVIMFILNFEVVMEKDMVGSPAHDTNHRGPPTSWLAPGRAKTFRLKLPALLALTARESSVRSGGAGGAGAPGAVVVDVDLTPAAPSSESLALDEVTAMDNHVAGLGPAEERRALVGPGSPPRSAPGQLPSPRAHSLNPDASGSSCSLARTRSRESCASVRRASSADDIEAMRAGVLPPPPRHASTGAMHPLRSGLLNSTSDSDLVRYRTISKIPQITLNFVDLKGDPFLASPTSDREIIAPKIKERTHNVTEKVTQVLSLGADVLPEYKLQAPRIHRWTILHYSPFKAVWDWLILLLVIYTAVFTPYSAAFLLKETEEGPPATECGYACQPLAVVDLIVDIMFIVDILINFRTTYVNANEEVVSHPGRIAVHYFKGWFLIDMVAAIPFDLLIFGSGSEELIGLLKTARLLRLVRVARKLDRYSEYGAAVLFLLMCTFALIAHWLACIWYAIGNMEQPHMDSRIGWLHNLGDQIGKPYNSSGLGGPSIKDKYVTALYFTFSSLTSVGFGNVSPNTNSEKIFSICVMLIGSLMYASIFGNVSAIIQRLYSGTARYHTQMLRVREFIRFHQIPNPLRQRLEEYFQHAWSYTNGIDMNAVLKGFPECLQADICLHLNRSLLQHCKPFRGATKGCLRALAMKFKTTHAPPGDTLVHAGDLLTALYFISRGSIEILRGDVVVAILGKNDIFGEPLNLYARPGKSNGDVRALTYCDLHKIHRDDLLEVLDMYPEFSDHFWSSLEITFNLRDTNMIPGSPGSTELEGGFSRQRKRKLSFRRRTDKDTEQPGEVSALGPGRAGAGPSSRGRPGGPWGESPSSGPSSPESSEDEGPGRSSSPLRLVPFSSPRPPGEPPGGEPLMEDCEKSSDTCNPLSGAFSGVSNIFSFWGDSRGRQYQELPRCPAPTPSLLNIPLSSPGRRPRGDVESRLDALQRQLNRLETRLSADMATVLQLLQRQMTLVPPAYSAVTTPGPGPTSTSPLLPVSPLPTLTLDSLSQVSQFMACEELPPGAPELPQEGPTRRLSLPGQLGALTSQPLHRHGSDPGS", "assay": "primary screen, population patch clamp on CHO cells stably expressing hERG", "units": {"hERG current change (%, negative = inhibition) at 1uM": "%"}}
{"smiles": "O=C(c1ccccc1[N+](=O)[O-])N1CCC(Cc2ccccc2)CC1", "hERG current change (%, negative = inhibition) at 1uM": 7.67}
{"smiles": "O=C(OCC(=O)N1CCCC1=O)c1cccc(S(=O)(=O)N2CCOCC2)c1", "hERG current change (%, negative = inhibition) at 1uM": 11.7}
{"smiles": "CC(C)Cn1c([N+](=O)[O-])nc2c1c(=O)[nH]c(=O)n2C", "hERG current change (%, negative = inhibition) at 1uM": 13.5}
{"smiles": "Cc1occc1-c1nnc(SCC(=O)NC(=O)NC(C)C)n1N", "hERG current change (%, negative = inhibition) at 1uM": 11.6}
{"smiles": "CCCOc1ccc(N2C(=O)CC(N(Cc3ccccc3)N=O)C2=O)cc1", "note": "(stereo not drawn)", "hERG current change (%, negative = inhibition) at 1uM": 8.66}
{"smiles": "CC1(C)C2([N+](=O)[O-])CN(CCO)CC1([N+](=O)[O-])CN(CCO)C2", "hERG current change (%, negative = inhibition) at 1uM": 5.48}
{"smiles": "C=CCNC(=O)c1onc(CSc2cccc(Cl)c2)c1C(=O)O", "hERG current change (%, negative = inhibition) at 1uM": 12}
{"smiles": "CCN(CC(=O)Nc1ccc(NC(C)=O)cc1)C(=O)/C=C/c1cn(-c2ccccc2)nc1-c1ccc(F)cc1", "hERG current change (%, negative = inhibition) at 1uM": 7.35}
{"smiles": "CCC(CC)c1nnc(NS(=O)(=O)Cc2ccccc2)s1", "hERG current change (%, negative = inhibition) at 1uM": 11}
{"smiles": "CCCNS(=O)(=O)c1ccc(CCC(=O)NCc2ccco2)cc1", "hERG current change (%, negative = inhibition) at 1uM": 5.52}
{"smiles": "COCc1nnc(NC(=O)c2ccc(OC)cc2OC)s1", "hERG current change (%, negative = inhibition) at 1uM": 11.3}
{"smiles": "CCCCNC(=O)Nc1nnc(-c2ccc(Cl)cc2)o1", "hERG current change (%, negative = inhibition) at 1uM": 11.7}
{"smiles": "Cl.O=C(c1ccc(Cl)cc1)N1CCN(CCc2ccccn2)CC1", "hERG current change (%, negative = inhibition) at 1uM": -53.7}
{"smiles": "CC(=O)Nc1ccc(C(=O)NC2CCCC2)cc1", "hERG current change (%, negative = inhibition) at 1uM": 6.35}
{"smiles": "Cn1cc(SCC(=O)Nc2nccs2)c2ccccc21", "hERG current change (%, negative = inhibition) at 1uM": 11.2}
{"smiles": "CCCCn1nc2cc(C(=O)NCCc3ccc(C)cc3)ccc2c1OCC", "hERG current change (%, negative = inhibition) at 1uM": 11.8}
{"smiles": "Cc1cc(NC(=O)CSc2nccn2-c2ccc(F)cc2)no1", "hERG current change (%, negative = inhibition) at 1uM": -5.83}
{"smiles": "CC1CC(=O)N(CC(=O)NCc2ccc(F)cc2)c2ccccc2S1(=O)=O", "note": "(stereo not drawn)", "hERG current change (%, negative = inhibition) at 1uM": 7}
{"smiles": "CSc1ccccc1C(=O)NCc1ccccc1", "hERG current change (%, negative = inhibition) at 1uM": 12.7}
{"smiles": "CCC(C(=O)Nc1ccccc1N1CCCC1)c1ccccc1", "note": "(stereo not drawn)", "hERG current change (%, negative = inhibition) at 1uM": 6.49}
{"smiles": "CN1c2ccccc2Oc2nnc(Cl)cc21", "hERG current change (%, negative = inhibition) at 1uM": 4.66}
{"smiles": "COc1ccc(C(=O)NNC(=O)C(NC(=O)c2cc(OC)cc(OC)c2)C(C)C)cc1", "note": "(stereo not drawn)", "hERG current change (%, negative = inhibition) at 1uM": 8.39}
{"smiles": "COc1ccccc1CN1CC(C(=O)NC2(c3ccccc3)CC2)CCC1=O", "note": "(stereo not drawn)", "hERG current change (%, negative = inhibition) at 1uM": 6.13}
{"smiles": "Cc1ccc(OCC(=O)NCCNC(=O)c2ccco2)cc1C", "hERG current change (%, negative = inhibition) at 1uM": 9.46}
{"smiles": "CCOC(=O)Nc1nnc(Cc2ccc(Cl)c(Cl)c2)s1", "hERG current change (%, negative = inhibition) at 1uM": 11.5}
{"smiles": "CC(=O)Nc1ccc(S(=O)(=O)Nc2cccn(Cc3ccc(C)cc3)c2=O)cc1", "hERG current change (%, negative = inhibition) at 1uM": 8.89}
{"smiles": "COc1cc2oc(=O)c3c(c2cc1OCC(=O)c1c(C)n(C)c2ccccc12)CCCC3", "hERG current change (%, negative = inhibition) at 1uM": 1.11}
{"smiles": "CS(=O)(=O)N(CC(=O)Nc1ccccc1Sc1ccccc1)c1ccc(F)cc1", "hERG current change (%, negative = inhibition) at 1uM": 4.54}
{"smiles": "Cc1ccc(-c2nc3sc4c(c3c(=O)n2N)CC(C)(C)OC4)cc1", "hERG current change (%, negative = inhibition) at 1uM": 17}
{"smiles": "Cc1oc(-c2cccc(F)c2)nc1CN1CCCN(C(=O)c2ccco2)CC1", "hERG current change (%, negative = inhibition) at 1uM": -10.4}
{"smiles": "O=C(Nc1ccccc1)Nc1ccccc1NS(=O)(=O)c1cccs1", "hERG current change (%, negative = inhibition) at 1uM": 10.8}
{"smiles": "COc1ccc(NC(=S)NC23CN4CN(CN(C4)C2)C3)cc1", "hERG current change (%, negative = inhibition) at 1uM": 15.7}
{"smiles": "COc1ccc(C(=O)SC2=NCCS2)cc1", "hERG current change (%, negative = inhibition) at 1uM": 7.04}
{"smiles": "CCOCCCNC(=O)C1(O)c2cc(Br)ccc2NC(=O)N1c1cccc(OC)c1", "note": "(stereo not drawn)", "hERG current change (%, negative = inhibition) at 1uM": 12.7}
{"smiles": "Cc1cc(C)nc(SC/C=C/c2ccccc2)n1.Cl", "hERG current change (%, negative = inhibition) at 1uM": 18.5}
{"smiles": "COc1ccc(OC(C)C(=O)N2CC(C)OC(C)C2)cc1", "note": "(stereo not drawn)", "hERG current change (%, negative = inhibition) at 1uM": 2.55}
{"smiles": "Cc1ccc(C(=O)NC(=S)Nc2ccc3[nH]c(=O)[nH]c3c2)cc1", "hERG current change (%, negative = inhibition) at 1uM": 1.16}
{"smiles": "Cc1nc2ccc(NC(=S)NCCCO)cc2nc1C", "hERG current change (%, negative = inhibition) at 1uM": 13.6}
{"smiles": "C/C(=N\\NC(=O)c1c(Cl)c(C)nn1C)c1ccc(NC(=O)COc2ccc(Cl)cc2C)cc1", "hERG current change (%, negative = inhibition) at 1uM": 10}
{"smiles": "COc1ccc2[nH]c(=O)c(CN(C(=O)c3ccccn3)C3CCCCC3)cc2c1", "hERG current change (%, negative = inhibition) at 1uM": 10.1}
{"smiles": "Cc1ccc(OCc2n[nH]c(=S)n2C2CCCCC2)cc1", "hERG current change (%, negative = inhibition) at 1uM": 16.8}
{"smiles": "Cn1cc(C(=O)c2cccc(Cl)c2Cl)cc1C(=O)O", "hERG current change (%, negative = inhibition) at 1uM": 14.4}
{"smiles": "CN(C)CCCn1c2c(c(SCC(=O)Nc3ccc4c(c3)OCO4)nc1=O)CCC2", "hERG current change (%, negative = inhibition) at 1uM": 7.55}
{"smiles": "COc1ccc(Cn2nnnc2C(C(C)C)N2CCN(c3ccccc3OC)CC2)cc1", "note": "(stereo not drawn)", "hERG current change (%, negative = inhibition) at 1uM": -15.5}
{"smiles": "CC(=O)O[C@@H]1/C=C/[C@](C)(O)C[C@@H](C)C/C=C/[C@H]2[C@H](O)C(C)=C(C)[C@H]3[C@H](Cc4ccccc4)NC(=O)[C@@]123", "hERG current change (%, negative = inhibition) at 1uM": 9.1}
